Assay results reported in patent US20260216242A1, “ALPP-SPECIFIC VARIANT ANTIGEN BINDING MOLECULES” (ALMAC DISCOVERY LIMITED, priority 2022, published 2026).

Target: ALPP/ALPPL2 on ALPP/ALPPL2 positive cancer cells (MKN1, NCI-H1651, NCI-N87, HPAC)
Assay: cell-based or functional assay

Binder | % viability remaining, NCI-N87 cells [%] | cell killing IC50 @ 96 h, NCI-N87 cells [pM] | % viability remaining, NCI-H1651 cells [%] | cell killing IC50 @ 96 h, NCI-H1651 cells [pM] | % viability remaining, HPAC cells [%] | % viability remaining, MKN1 cells [%] | cell killing IC50 @ 96 h, HPAC cells [pM] | cell killing IC50 @ 96 h, MKN1 cells [pM]
D10 linker Cys-hFc-vcPAB-MMAE (S442C) (Fc fusion, here or on the partner: MC-vc-PAB-MMAE on the linker Cys and on Cys 442 (S442C, EU numbering); DAR 4.1) QVQLVESGGGLVQPGGSLRLSCAASGSIFSVNTMGWYRQAPGKQRDLVAVATSGGTIHYADSVKGRFTISRDNAKNTVYLQMNSLKPEDTAVYYCNLVVPYGMIAGDHDYWGQGTKVTVSSGCGGSGGGGSGGGGS[human IgG1 Fc with changes not spelt out] | 38.7 | 1600 |  |  |  |  |  | 
E06 linker Cys-hFc-vcPAB-MMAE (S442C) (Fc fusion, here or on the partner: MC-vc-PAB-MMAE on the linker Cys and on Cys 442 (S442C, EU numbering); DAR 4.1) QVHLVESGGGLVQAGGSLRLSCAASRRSFSEYAMGWFRQAPGKEREFVAAIGWSGVIEYADSVKGRFTISRDNAKDTVYLQMNSLKPEDTAVYYCAAGLGIRVVSQTPAYWGQGTQVTVSSGCGGSGGGGSGGGGS[human IgG1 Fc with changes not spelt out] | 40.5 | 460 | 27.1 | 810 |  |  |  | 
D10-hFc (S239C)-MA-PEG4-vc-PAB-EDA-PNU159682 (Fc fusion, here or on the partner: MA-PEG4-vc-PAB-EDA-PNU159682 on Cys 239 (S239C, EU numbering); DAR 2) QVQLVESGGGLVQPGGSLRLSCAASGSIFSVNTMGWYRQAPGKQRDLVAVATSGGTIHYADSVKGRFTISRDNAKNTVYLQMNSLKPEDTAVYYCNLVVPYGMIAGDHDYWGQGTKVTVSSGGGGSGGGGSGGGGS[human IgG1 Fc with changes not spelt out] | 0 | 35100 | 10 | 13800 | 0 | 8.4 | 35600 | 250
E06-hFc (S239C)-MA-PEG4-vc-PAB-EDA-PNU159682 (Fc fusion, here or on the partner: MA-PEG4-vc-PAB-EDA-PNU159682 on Cys 239 (S239C, EU numbering); DAR 1.97) QVHLVESGGGLVQAGGSLRLSCAASRRSFSEYAMGWFRQAPGKEREFVAAIGWSGVIEYADSVKGRFTISRDNAKDTVYLQMNSLKPEDTAVYYCAAGLGIRVVSQTPAYWGQGTQVTVSSGGGGSGGGGSGGGGS[human IgG1 Fc with changes not spelt out] | 0 | 33500 | 24.5 | 540 | 0 | 11.6 | 20000 | 290

Target: ALPP/ALPPL2 on ALPP/ALPPL2 positive cancer cells (MKN1, NCI-H1651, NCI-N87, Caov-3, HPAC)
Assay: cell-based or functional assay

Binder | % viability remaining at 96 h, Caov-3 cells [%] | % viability remaining at 96 h, HPAC cells [%] | % viability remaining at 96 h, MKN1 cells [%] | % viability remaining at 96 h, NCI-H1651 cells [%] | % viability remaining at 96 h, NCI-N87 cells [%] | IC50 at 96 h, cell-killing of Caov-3 cells [pM] | IC50 at 96 h, cell-killing of HPAC cells [pM] | IC50 at 96 h, cell-killing of MKN1 cells [pM] | IC50 at 96 h, cell-killing of NCI-H1651 cells [pM] | IC50 at 96 h, cell-killing of NCI-N87 cells [pM]
D10 E10-hFc (S239C T366Y/Y407T), [G4S]3 linker, MA-PEG4-vc-PAB-EDA-PNU159682 conjugate, #880 (Fc fusion, DAR 2.02, here or on the partner: MA-PEG4-vc-PAB-EDA-PNU159682 on Cys of S239C (EU numbering)) chain 1: QVQLVESGGGLVQPGGSLRLSCAASGSIFSVNTMGWYRQAPGKQRDLVAVATSGGTIHYADSVKGRFTISRDNAKNTVYLQMNSLKPEDTAVYYCNLVVPYGMIAGDHDYWGQGTKVTVSSGGGGSGGGGSGGGGS[human IgG1 Fc with C220S S239C T366Y (EU numbers) not spelt out] chain 2: QVQLVESGGGLVQAGGSLRLSCAVSGRALSDYNIGWFRQAPGKEREFVARKTWDGSSTRYDDSVKGRFTVSIEDAKNTAYLQMSSLKTEDTAVYYCAAGRYSRARGWEYDYWGQGTQVTVSSGGGGSGGGGSGGGGS[human IgG1 Fc with C220S S239C Y407T (EU numbers) not spelt out] | 23 | 4 | 3 | 7 | 13 | 260 | 480 | 290 | 180 | 1500
D10 E06-hFc (S239C T366Y/Y407T), [G4S]3 linker, MA-PEG4-vc-PAB-EDA-PNU159682 conjugate, #881 (Fc fusion, DAR 2.02, here or on the partner: MA-PEG4-vc-PAB-EDA-PNU159682 on Cys of S239C (EU numbering)) chain 1: QVQLVESGGGLVQPGGSLRLSCAASGSIFSVNTMGWYRQAPGKQRDLVAVATSGGTIHYADSVKGRFTISRDNAKNTVYLQMNSLKPEDTAVYYCNLVVPYGMIAGDHDYWGQGTKVTVSSGGGGSGGGGSGGGGS[human IgG1 Fc with C220S S239C T366Y (EU numbers) not spelt out] chain 2: QVHLVESGGGLVQAGGSLRLSCAASRRSFSEYAMGWFRQAPGKEREFVAAIGWSGVIEYADSVKGRFTISRDNAKDTVYLQMNSLKPEDTAVYYCAAGLGIRVVSQTPAYWGQGTQVTVSSGGGGSGGGGSGGGGS[human IgG1 Fc with C220S S239C Y407T (EU numbers) not spelt out] | 18 | 8 | 3 | 7 | 12 | 1970 | 4220 | 600 | 380 | 1980
D10 F05-hFc (S239C T366Y/Y407T), [G4S]3 linker, MA-PEG4-vc-PAB-EDA-PNU159682 conjugate, #882 (Fc fusion, DAR 1.94, here or on the partner: MA-PEG4-vc-PAB-EDA-PNU159682 on Cys of S239C (EU numbering)) chain 1: QVQLVESGGGLVQPGGSLRLSCAASGSIFSVNTMGWYRQAPGKQRDLVAVATSGGTIHYADSVKGRFTISRDNAKNTVYLQMNSLKPEDTAVYYCNLVVPYGMIAGDHDYWGQGTKVTVSSGGGGSGGGGSGGGGS[human IgG1 Fc with C220S S239C T366Y (EU numbers) not spelt out] chain 2: QVQLVESGGGLVQAGGSLRLSCAASGRAFGDYNIGWFRQAPGKEREFVARRTWDGSSTRYDDSVKGRFTVSIDNAKNTAYLQMNSLKTEDTAVYYCAAGRYSRVRGWEYDYWGQGTQVTVSSGGGGSGGGGSGGGGS[human IgG1 Fc with C220S S239C Y407T (EU numbers) not spelt out] | 20 | 4 | 3 | 7 | 12 | 280 | 630 | 300 | 210 | 880
A06 F05-hFc (S239C T366Y/Y407T), [G4S]3 linker, MA-PEG4-vc-PAB-EDA-PNU159682 conjugate, #883 (Fc fusion, DAR 2.03, here or on the partner: MA-PEG4-vc-PAB-EDA-PNU159682 on Cys of S239C (EU numbering)) chain 1: QVHLVESGGGLVQAGGSLRLSCAASGRTFLSMGWFRQAPGKEREFVAAISWTGGSTGYADSVKGRFTISRESDKETMYLQMNSLKPEDTAVYYCAARGDVYYGGDDATRYKYWGQGTQVTVSSGGGGSGGGGSGGGGS[human IgG1 Fc with C220S S239C T366Y (EU numbers) not spelt out] chain 2: QVQLVESGGGLVQAGGSLRLSCAASGRAFGDYNIGWFRQAPGKEREFVARRTWDGSSTRYDDSVKGRFTVSIDNAKNTAYLQMNSLKTEDTAVYYCAAGRYSRVRGWEYDYWGQGTQVTVSSGGGGSGGGGSGGGGS[human IgG1 Fc with C220S S239C Y407T (EU numbers) not spelt out] | 17 | 6 | 4 | 7 | 12 | 550 | 340 | 450 | 120 | 1100
D10 E06-hFc (S239C T366Y/Y407T), [G4S]1 linker, MA-PEG4-vc-PAB-EDA-PNU159682 conjugate, #884 (Fc fusion, DAR 2.03, here or on the partner: MA-PEG4-vc-PAB-EDA-PNU159682 on Cys of S239C (EU numbering)) chain 1: QVQLVESGGGLVQPGGSLRLSCAASGSIFSVNTMGWYRQAPGKQRDLVAVATSGGTIHYADSVKGRFTISRDNAKNTVYLQMNSLKPEDTAVYYCNLVVPYGMIAGDHDYWGQGTKVTVSSGGGGS[human IgG1 Fc with C220S S239C T366Y (EU numbers) not spelt out] chain 2: QVHLVESGGGLVQAGGSLRLSCAASRRSFSEYAMGWFRQAPGKEREFVAAIGWSGVIEYADSVKGRFTISRDNAKDTVYLQMNSLKPEDTAVYYCAAGLGIRVVSQTPAYWGQGTQVTVSSGGGGS[human IgG1 Fc with C220S S239C Y407T (EU numbers) not spelt out] | 26 | 9 | 3 | 8 | 12 | 410 | 1300 | 410 | 190 | 860
D10 E10-hFc (S239C T366Y/Y407T), [G4S]1 linker, MA-PEG4-vc-PAB-EDA-PNU159682 conjugate, #885 (Fc fusion, DAR 2.02, here or on the partner: MA-PEG4-vc-PAB-EDA-PNU159682 on Cys of S239C (EU numbering)) chain 1: QVQLVESGGGLVQPGGSLRLSCAASGSIFSVNTMGWYRQAPGKQRDLVAVATSGGTIHYADSVKGRFTISRDNAKNTVYLQMNSLKPEDTAVYYCNLVVPYGMIAGDHDYWGQGTKVTVSSGGGGS[human IgG1 Fc with C220S S239C T366Y (EU numbers) not spelt out] chain 2: QVQLVESGGGLVQAGGSLRLSCAVSGRALSDYNIGWFRQAPGKEREFVARKTWDGSSTRYDDSVKGRFTVSIEDAKNTAYLQMSSLKTEDTAVYYCAAGRYSRARGWEYDYWGQGTQVTVSSGGGGS[human IgG1 Fc with C220S S239C Y407T (EU numbers) not spelt out] | 27 | 9 | 4 | 8 | 12 | 580 | 1000 | 290 | 180 | 880
D10 F05-hFc (S239C T366Y/Y407T), [G4S]1 linker, MA-PEG4-vc-PAB-EDA-PNU159682 conjugate, #886 (Fc fusion, DAR 2.01, here or on the partner: MA-PEG4-vc-PAB-EDA-PNU159682 on Cys of S239C (EU numbering)) chain 1: QVQLVESGGGLVQPGGSLRLSCAASGSIFSVNTMGWYRQAPGKQRDLVAVATSGGTIHYADSVKGRFTISRDNAKNTVYLQMNSLKPEDTAVYYCNLVVPYGMIAGDHDYWGQGTKVTVSSGGGGS[human IgG1 Fc with C220S S239C T366Y (EU numbers) not spelt out] chain 2: QVQLVESGGGLVQAGGSLRLSCAASGRAFGDYNIGWFRQAPGKEREFVARRTWDGSSTRYDDSVKGRFTVSIDNAKNTAYLQMNSLKTEDTAVYYCAAGRYSRVRGWEYDYWGQGTQVTVSSGGGGS[human IgG1 Fc with C220S S239C Y407T (EU numbers) not spelt out] | 30 | 7 | 4 | 9 | 12 | 690 | 840 | 300 | 160 | 390
